The values that follow come from the antibiotic and cytotoxicity screens of Wong et al. (2023).

Each structure is given as a SMILES string. The list shows a part of the results.

In the experiment the test system is HepG2. Put plainly: cytotoxicity call (relative viability < 0.9). The following applies: 10 µM.
In the case of `C[C@@H]1CCCCO[C@@H](CN(C)C(=O)CCC(F)(F)F)[C@@H](C)CN([C@@H](C)CO)C(=O)c2cc(NS(=O)(=O)c3ccc(F)cc3)ccc2O1`, the cytotoxicity call was “inactive”.

With `Cc1ccc(S(=O)(=O)Nc2ccc3c(c2)C(=O)N([C@@H](C)CO)C[C@@H](C)[C@@H](CN(C)C(=O)Nc2ccc(C(F)(F)F)cc2)O3)cc1`, the cytotoxicity call is “inactive”.

As for `C[C@@H]1CN([C@H](C)CO)C(=O)c2cc(NC(=O)Cc3ccccc3)ccc2O[C@@H](C)CCCCO[C@@H]1CN(C)C(=O)Cc1ccccc1`, the cytotoxicity call is “inactive”.

For the compound `CN(C)CC(=O)N[C@@H]1C=C[C@@H](CC(=O)NCCN2CCCCC2)O[C@@H]1CO`, the cytotoxicity call was “inactive”.

Take `Cc1ccc(S(=O)(=O)Nc2cccc3c2O[C@@H](CN(C)C(=O)NC(C)C)[C@H](C)CN([C@@H](C)CO)C3=O)cc1`: the cytotoxicity call is “inactive”.

For `C[C@H]1CCCCO[C@H](CN(C)Cc2ccc3c(c2)OCO3)[C@@H](C)CN([C@@H](C)CO)C(=O)c2cc(NC(=O)Nc3cccc4ccccc34)ccc2O1`, the cytotoxicity call was “active”.

Take `CCC=CCC=CCC=CCC=CCC=CCC=CCCC(=O)O`: the cytotoxicity call is “inactive”.

Consider `C[C@H](CO)N1C[C@H](C)[C@H](CN(C)Cc2ccc(C(=O)Nc3ccccc3N)cc2)Oc2c(NC(=O)Nc3cccc4ccccc34)cccc2C1=O`, for which the cytotoxicity call is “active”.

Consider `Cc1ccc2oc(=O)cc(Cl)c2c1`, for which the cytotoxicity call is “inactive”.

As for `Nc1ccc(S(=O)(=O)[N-]c2cnc3ccccc3n2)cc1.[Na+]`, the cytotoxicity call was “inactive”.

`CC(=O)O[C@@H]1[C@@H](OC(C)=O)[C@@H]2OC[C@@H](O2)[C@H]1OC(C)=O`: the cytotoxicity call was “inactive”.

Consider `Nc1ncn(Cc2ccccc2)n1`, for which the cytotoxicity call was “inactive”.

Turning to `C[C@H](CO)N1C[C@H](C)[C@@H](CN(C)Cc2ccc(C(=O)O)cc2)Oc2c(NC(=O)c3ccc(-c4nccs4)cc3)cccc2C1=O`, the cytotoxicity call is “inactive”.

`C[C@@H]1CN([C@H](C)CO)C(=O)Cc2cc(NC(=O)Cn3cnnn3)ccc2O[C@@H]1CN(C)S(=O)(=O)c1cccs1`: the cytotoxicity call is “inactive”.

Take `C[C@@H]1CN([C@H](C)CO)C(=O)c2cc(N(C)C)ccc2O[C@H]1CN(C)S(C)(=O)=O`: the cytotoxicity call is “inactive”.

In the case of `C[C@H]1CN([C@@H](C)CO)C(=O)c2cccc(NS(C)(=O)=O)c2O[C@H]1CN(C)C(=O)Nc1ccc2c(c1)OCO2`, the cytotoxicity call is “inactive”.

`C[C@H](CO)N1C[C@H](C)[C@@H](CN(C)Cc2ccc(Cl)c(Cl)c2)Oc2c(NC(=O)NC3CCCCC3)cccc2C1=O`: the cytotoxicity call was “inactive”.

Take `CNCc1cc2ccccc2s1`: the cytotoxicity call is “inactive”.

As to `CC[C@@H](Sc1n[nH]c(=O)[nH]c1=O)C(=O)O`, the cytotoxicity call was “inactive”.

As for `Cc1noc(C)c1NC(=O)N(C)C[C@H]1Oc2ccc(NC(=O)NC(C)C)cc2C(=O)N([C@@H](C)CO)C[C@@H]1C`, the cytotoxicity call is “inactive”.

`Cn1cc(-c2nc(N[C@@H]3CCCC[C@@H]3N)c(F)c3c2C(=O)NC3)cn1`: the cytotoxicity call is “inactive”.

With `COCCOC(=O)N1C(=O)[C@@]2(c3cc(C#CC4=CCCCC4)ccc31)[C@H](C(=O)N1CCc3cc(OC)c(OC)cc3C1)[C@H]1C(=O)O[C@H](c3ccccc3)[C@H](c3ccccc3)N1[C@@H]2c1ccccc1OCCO`, the cytotoxicity call is “active”.

For `Cc1noc(C)c1S(=O)(=O)Nc1ccc2c(c1)C(=O)N([C@@H](C)CO)C[C@@H](C)[C@@H](CN(C)S(C)(=O)=O)O2`, the cytotoxicity call was “inactive”.

In the case of `C[C@@H]1CCCCO[C@@H](CN(C)C(=O)Cc2ccccc2)[C@@H](C)CN([C@H](C)CO)C(=O)c2cc(NC(=O)Cc3ccccc3)ccc2O1`, the cytotoxicity call was “inactive”.

As to `COc1ccc(NC(=O)Nc2ccc3c(c2)C(=O)N([C@@H](C)CO)C[C@@H](C)[C@@H](CN(C)C(=O)Nc2ccc(C(F)(F)F)cc2)O3)cc1`, the cytotoxicity call is “inactive”.

As to `C[C@@H]1CN([C@H](C)CO)C(=O)CCCn2cc(nn2)CO[C@@H]1CN(C)S(=O)(=O)c1ccc(-n2cccn2)cc1`, the cytotoxicity call is “inactive”.

Turning to `C[C@H]1CN([C@@H](C)CO)S(=O)(=O)c2ccc(C#Cc3cccnc3)cc2O[C@@H]1CN(C)CC1CCOCC1`, the cytotoxicity call was “inactive”.

Turning to `Cc1noc(C)c1NC(=O)Nc1ccc2c(c1)C(=O)N([C@H](C)CO)C[C@H](C)[C@H](CN(C)Cc1ccccc1)OCCCC[C@@H](C)O2`, the cytotoxicity call was “inactive”.

Turning to `C[C@@H]1CN([C@@H](C)CO)C(=O)c2cc(NC(=O)C3CCCCC3)ccc2O[C@@H](C)CCCCO[C@@H]1CN(C)S(=O)(=O)c1ccc(Cl)cc1`, the cytotoxicity call was “inactive”.

Take `O=C(CCCCCCC(=O)Nc1ccc([C@H]2O[C@@H](CSc3ccccc3)C[C@H](c3ccccc3)O2)cc1)NO`: the cytotoxicity call was “inactive”.

On to `C[C@H](CO)N1C[C@H](C)[C@@H](CN(C)S(=O)(=O)c2ccccc2)Oc2ccc(NC(=O)Cc3ccccc3)cc2CC1=O`, for which the cytotoxicity call is “inactive”.
